# Measurements: PubChem BioAssay AID1794842 (National Center for Advancing Translational Sciences (NCATS), 2023)
# The whole screen tested about 2,800 compounds, of which fewer than 10 were called active. Calls follow the shape of the dose curve; as a rule, active = well fitted curve in the direction sought with a large enough effect; inconclusive = small, poorly fitted or top-dose-only effect, or another doubt; inactive = no such curve, though single readings can be large or run the other way. The list shows a part of the results.
# Biological target: Metallo-beta-lactamase type 2 (Klebsiella pneumoniae) (UniProt C7C422)
# Chain of UniProt C7C422 (C7C422 whole entry, looked up): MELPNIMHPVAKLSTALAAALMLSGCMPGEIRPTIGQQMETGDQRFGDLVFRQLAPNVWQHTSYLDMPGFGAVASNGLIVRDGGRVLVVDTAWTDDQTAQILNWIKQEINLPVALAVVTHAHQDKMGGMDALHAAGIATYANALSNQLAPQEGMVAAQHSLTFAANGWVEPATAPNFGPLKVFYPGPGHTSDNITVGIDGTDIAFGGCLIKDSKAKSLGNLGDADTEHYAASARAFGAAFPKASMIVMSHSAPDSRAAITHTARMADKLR
# Assay: qHTS to identify inhibitors of the New Delhi Metallo-beta-lactamase (NDM): Meropenem screen against the machine-based learning selections. Also: % of control where 0% means no effect.
# Conditions: Purified NDM-1, meropenem hydrolysis, absorbance 300 nm; at 38.4 µM (top of the series) unless noted
# From the text: Assay Submitter (PI): James Inglese Ph.D., Patricia Dranchak Ph.D., Mahesh Aitha Ph.D. Assay Development and Screening Technology Laboratory (ADST) National Center for Advancing Translational Sciences (NCATS), Rockville, MD National Institute of Health (NIH), Bethesda, Maryland The metallo-beta-lactamases (MBL) are a main antibiotic resistance mechanism evolved by bacteria. There is an urgent clinical need for MBL inhibitors to mitigate this growing threat. To support a machine-based learning study, qHTS has been used to experimentally test inhibitors identified by prediction tools.
# PROTOCOL TABLE (as described by Inglese et al., 2007) SEQUENCE No. (e.g., 1, 2, 3, etc.); […] (e.g., enzyme, Incubation, Reagent, etc.); VALUE; DESCRIPTION Primary Screen 1; NDM-1; 4 uL of 3 nM enzyme [2 nM final] in 50 mM HEPES (pH 7.0), 1 uM […], 0.01% Tween20; Use BioRaptr to dispense into two sets of Aurora black, clear bottom high base 1536-well plates 2; Compounds; 23 nL; Use Pin Tool (Wako) to transfer DMSO control and library compounds in DMSO 3; Incubate; >30 min 4a; Reagent; 2 uL of 50 uM nitrocefin [16.7 uM final] to one set of assay plates 4b; Reagent; 2 uL of 150 uM meropenem [50 uM final] to second set of assay plates 5a; Incubate; 15 min 5b; Incubate; 30 min 6a; Detector; Absorbance at 485 nm (bandwidth = 5 nm, 25 flashes/well) on Tecan Infinity 6b; Detector; Absorbance at 300 nm (bandwidth = 5 nm, 25 flashes/well) on Tecan Infinity NOTES (numbers refer to sequence above) 1; Column 1 of each plate received assay buffer without enzyme and columns 2-48 received enzyme for a final assay concentration of 2 nM. 2; Control plate contained DMSO in columns 1, 2, 3, and 4. 3; Compound interaction with enzyme. 4; Nitrocefin and meropenem substrates were prepared in the same assay buffer as step 1 for a final assay concentration of 16.7 uM and 50 uM, respectively, and added to all wells across respective sets of assay plates. 5; Default reader settings were applied for absorbance read at 485 nm (nitrocefin) or 300 nm (meropenem), bandwidth = 5 nm, 25 flashes/well. References: Inglese J, Shamu CE, Guy RK. 2007. Reporting data from high-throughput screening of small-molecule libraries. Nat Chem Biol. doi:10.1038/nchembio0807-438 Yasgar A, Shinn P, Jadhav A, Auld D, Michael S, Zheng W, Austin CP, Inglese J, Simeonov A. 2008. Compound Management for Quantitative High-Throughput Screening. J Lab Autom 13:79 - 89. doi:10.1016/j.jala.2007.12.004
row,SMILES,"activity change, negative = inhibition"
1,Cc1ccc(S(=O)(=O)N2CCCC(Cn3c(C)nc4cccnc43)C2)cc1Cl (configuration not stated),inactive: -3.41%
2,Cn1cnc(C(=O)N2CCC(OC3CCN(S(C)(=O)=O)CC3)CC2)c1,inactive: 52.3%
3,CN1C[C@@H](NC(=O)c2cccnc2)C[C@H]1c1nc(-c2ccncc2)no1,inactive: 3.11% [at 57.5 µM]
4,CCC[C@@H]1CN(C(=O)c2ccc(OC)o2)C[C@H]1C(=O)O,inactive: 18.2%
5,CCCS(=O)(=O)N1CCC(N2CCCC(C(=O)N3CCOCC3)C2)CC1 (configuration not stated),inactive: 0.988%
6,O=C(Nc1cccc(F)c1)C1CCN(C(=O)N2CC3CC(C2)[C@H]2CCCC(=O)N2C3)CC1 (some centres not stated),inactive: 2.72%
7,COc1ccc(C(=O)N[C@@H]2CN(C(=O)Nc3ccccc3)CCC[C@H]2O)cc1,inactive: -1.35% [at 57.5 µM]
8,Cc1noc2c(-c3cccc(CO)c3)cc(-c3ccccc3)nc12,inactive: 12.2% [at 57.5 µM]
9,O=C(O)c1ccnc(-c2ccnc(NCC(O)c3ccccc3Cl)n2)c1 (configuration not stated),inactive: 2.38%
10,CC1(COc2cccnc2)COc2ccc(C(=O)Nc3ccc4[nH]ccc4c3)cc2N1 (configuration not stated),inactive: 16.2% [at 57.5 µM]
11,Clc1cccc(Nc2cc3c(cn2)CN(Cc2cccnc2)CCN3)c1,inactive: 1.21% [at 57.5 µM]
12,O=C1NCCCc2[nH]c(-c3csc(-c4cnccn4)n3)nc21,inactive: 8.44%
13,c1ccc(-c2ccc3ncc(Nc4ccccn4)n3n2)cc1,inactive: 16.5% [at 76.7 µM]
14,Cc1cc(CNC(=O)[C@@H]2CCC[C@@H](NC(=O)c3ccc(C#N)cc3)CN(C)C(=O)C2)no1,inactive: 0.691%
15,COc1cc(-c2nc3cc4[nH]c(=O)[nH]c4cc3[nH]2)cc(OC)c1O,inactive: 0.965%
16,O=C(COc1ccccc1)N1CCCC(Nc2ccc(F)cc2)C1 (configuration not stated),inactive: 0.919%
17,CSc1cccc(NC(=O)Cn2c(N3CCOCC3)nc(C)cc2=O)c1,inactive: 8.23%
18,O=C(NC1CCCCCC1)c1ccc2c(c1)CC(=O)N2Cc1ccc(F)cc1,inactive: 1.58%
19,COc1ccc(C(=O)N[C@H]2C[C@H]3C(=O)Nc4ccc(-c5ccsc5)cc4C(=O)N3C2)cc1,inactive: -3.03%
20,Cc1ccccc1-c1[nH]nc2ncc(-c3ccccc3O)nc12,inactive: 0.134% [at 57.5 µM]
21,O=C1Nc2ccc(-c3ccc(Cl)cc3)cc2C(=O)N2CC[C@H](NS(=O)(=O)c3cccs3)C[C@@H]12,inactive: 1.65%
22,OCc1cccc(-c2cc3c(cn2)CN(CCc2ccccc2)CCN3)c1,inactive: 52.4% [at 57.5 µM]
23,O=C(CCc1ccccc1)N1CCNc2cnc(Nc3ccc(-n4ccnc4)cc3)nc2C1,inactive: 26.1%
24,CCCN(C)C(=O)CC1COCCN1C(=O)Nc1cccc(SC)c1 (configuration not stated),inactive: 1.9%
25,Cc1ccccc1[C@H]1C[C@@H](O)[C@@H](O)[C@@H]1NS(C)(=O)=O,inactive: 1.14% [at 76.7 µM]
26,Cc1cc(-c2cnc3[nH]cc(CC(=O)NCc4cccnc4)c3c2)ccn1,inactive: 3.65% [at 57.5 µM]

row,SMILES,"activity change, negative = inhibition"
1,O=C(Cc1ccc(Cl)cc1)N[C@H]1[C@H](O)[C@H](O)C[C@@H]1c1cccnc1,inactive: 0.0188% [at 57.5 µM]
2,CCn1cnnc1CC1CCCN(S(=O)(=O)c2ccccc2C)C1 (configuration not stated),inactive: -0.103%
3,COCc1cn(C[C@H]2C[C@@H](NC(=O)Nc3cccnc3)[C@H](O)[C@@H]2O)nn1,inactive: 57.5% [at 57.5 µM]
4,OC(c1cccc(C(F)(F)F)c1)c1nc(Nc2ccc3c(c2)OCO3)n[nH]1 (configuration not stated),inactive: -0.987% [at 57.5 µM]
5,CC1(CCCCc2ccccc2)COc2ccc(C(=O)NC3CCC(O)CC3)cc2N1 (configuration not stated),inactive: 1.11% [at 57.5 µM]
6,CC(=O)Nc1ccc(C2(C(=O)NCc3cccc(F)c3)CCC2)cc1,inactive: 1.92%
7,Cc1ccccc1-c1cnc2[nH]cc(CC(=O)Nc3ccccc3)c2c1,inactive: 3.19% [at 57.5 µM]
8,CC(=O)Nc1ccc(CN2CCC(N3CCCCCC3=O)CC2)cc1,inactive: 0.422%
9,Cc1cc(-c2cnc3[nH]cc(CC(N)=O)c3c2)ccn1,inactive: 10.9% [at 76.7 µM]
10,O=C(c1cccc(F)c1)N1CCC(Cc2nc(C3CCOCC3)no2)CC1,inactive: -2.06%
11,O=C(Cc1c[nH]c2ncc(-c3ccc(F)cc3)cc12)NCc1cccnc1,inactive: 5.98% [at 57.5 µM]
12,CC(C)CC(=O)N1CCc2ccc(S(=O)(=O)N(C)Cc3nccs3)cc2C1,inactive: 0.206%
13,O=C(c1ccccn1)N1CCCC2(C1)Nc1cccnc1NC2=NC1CCCC1 (configuration not stated),inactive: 27.1%
14,CC(C)C(=O)N1CCC(Oc2cccnc2)C1 (configuration not stated),inactive: 1.99%
15,O=C(C1CCCC1)N1CCOC[C@H](Oc2ccc(C(F)(F)F)cc2)C1,inactive: 0.152% [at 57.5 µM]
16,CN(CCCNC1CCC2(CCNCC2)CC1)c1ccccc1,inactive: 53.9%
17,CO[C@@H]1COCC[C@H]1NC(=O)CCCn1nnc(-c2ccc(F)cc2)n1,inactive: -0.65%
18,CN(CC1CCOCC1)S(=O)(=O)Cc1cccc(Cl)c1,inactive: -0.593%
19,CS(=O)(=O)N1CCCCCNC(=O)CC1c1ccccc1 (configuration not stated),inactive: -4.34%
20,COc1ccc(C(=O)N[C@@H]2CN(C(=O)Nc3ccc(OC(F)(F)F)cc3)CCC[C@H]2O)cc1,inactive: 1.33%
21,COCC(=O)N1CCc2nc(N(C)CCc3ccncc3)[nH]c(=O)c2CC1,inactive: 1.22%
22,COCCNC(=O)CC[C@]12CC[C@](C)(O)C[C@H]1C(C)(C)C[C@@H]2NC(=O)CC(C)(C)C,inactive: -2.32% [at 57.5 µM]
23,C[C@]1(O)CCN(C(=O)c2ccc3c(c2)CCCC3)C[C@@H]1O,inactive: -1.99%
24,Cn1nc(C2CCN(C(=O)c3nccc4ccccc34)CC2)c2c1CCOC2,inactive: -0.253%
25,C#CCNC(=O)[C@H]1O[C@H](CCN2CCOCC2)CC[C@@H]1O,inactive: 1.56% [at 57.5 µM]
26,COc1ccc2[nH]c(C[C@@H]3C[C@@H](C(C)C)[C@H](CNCc4ccccc4O)C=C3C)nc2n1,inactive: 6.61% [at 57.5 µM]
